Variants at the background level are over-represented here.
B1: TPR 5TU (parent)
chain: GGAUCUUCUCGAUCUAACAAAAAAGACAAAUCUGCCACAAAGCUUGAGAGCAUCUUCGGAUGCAGAGGCGGCAGCCUUCGGUGGCGCGAUAGCGCCAACGUUCUCAACUAUGACACGCAAAACGCGUGCUCCGUUGAAUGGAGUUUAUCAUG

Variants of: B1
Test: polymerase ribozyme fitness, log enrichment relative to wild type (log ratio); higher = more active; in vitro selection for triplet polymerase activity
Procedure, shortened: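 In triplicate, a single round of in vitro selection was run on each mutant library, PCR-built and transcribed, covering one subunit of a heterodimeric triplet polymerase ribozyme. Frozen incubation at −7 °C followed annealing with a biotinylated primer, partner subunit and triplets, and extended constructs were then gel-excised, streptavidin-captured and taken through RT-PCR. Fitness is the logarithm of genotype enrichment over wild-type enrichment, from inverse-variance-weighted replicate averages of Illumina-sequenced inputs and outputs. […] only genotypes with ≥10 input reads and ≥1 read per output were kept.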

GGAUCUUCUCGAUCUAACAAAAAAGACAAAUCUGCCACAAAGCUUGCGAGCAUCUUCGGAUGCAGAGGCGGGAGCCUUCGGUGGCGCGAUAGCGCCAACGUUCUCAACUAUGACACGCAAAACGCGUGCUCCGUUGAAUGGAGUUUAUCAUG and GGAUCUUCUCGAUCUAACAAAAAAGACAAAUCUGCCACAAAGCUUGCGAGCAUCUUCGGAUGCAGAGGCGGGAGCCUUCGGUUGCGCGAUAGCGCCAACGUUCUCAACUAUGACACGCAAAACGCGUGCUCCGUUGAAUGGGGUUUAUCAUG cannot be ordered by “polymerase ribozyme fitness (log ratio)” value: no more than -4.2 for the first, no more than -4.2 for the second.

GGAUCUUCUCGAUCUAACAAAAAAGACAAAUCUGCCACAAAGCUUGCGAGCAUCUUCGGAUGCAGAGGCGGCAGCGUUCGAUGGCGCGAUAGCGCCAACGUUCUCAACUAUGACACGCAAAACGCGUGCUCCGUUGAAUGGAGUUUAUCAUG and GGAUCUUCUCGAUCUAACAAAAAAGACAAAUCUGCCACAAAGCUUGCGAGCAUCUUCGGAUGCAGAGGCGGCAGCUUUCGGUGGCGCGAUCGCGCCAACGUUCUCAACUAUGACACGCAAAACGCGUGCUCCGUUGAAUGGAGUUUAUCAUG cannot be ordered by “polymerase ribozyme fitness (log ratio)” value: no more than -4.2 for the first, no more than -4.2 for the second.

Going from GGAUCUUCUCGAUCUAACAAAAAAGACAAAUCUGCCACAAAGCUUGCGAGCAUCUUCGGAUGCAGAGGCGGCAGCCUUCGGUGGCGCGAUAGCGCAAACGUUCUCAACUAUGACACGCAAAACGCGUGCUCCGUUGAAUGGAGUUUAUCAUG to GGAUCUUCUCGAUCUAACAAAAAAGACAAAUCUGCCACAAAGCUUGCGAGCAUCUUCGGAUGCAGAGGCGGCAGCCUUCGGUGGCGCGAUAGCGCCAACGUUCUAAACUAUGACACGCAAAACGCGUGCUCAGUUGAAUGGAGUUUAUCAUG, the “polymerase ribozyme fitness (log ratio)” value falls from -0.697 to no more than -4.2.

GGAUCUUCUCGAUCUAACAAAAAAGACAAAUCUGCCACAAAGCUUGCAAGCAUCUUCGGAUGCAGAGGCGGCAGCCUUCUGUGGCGCUAUAGCGCCAACGUUCUCAACUAUGACACGCAAAACGCGUGCUCCGUUGAAUGGAGUUUAUCAUG and GGAUCUUCUCGAUCUAACAAAAAAGACAAAUCUGCCACAAAGCUUGCAAGCAGCUUCGGAUGCAGAGGCGGCAGCCUUCGGUGGUGCGAUAGCGCCAACGUUCUCCACUAUGACACGAAAAACGCGUGCUCCGUUGAAUGGUCUUUAUCAUG cannot be ordered by “polymerase ribozyme fitness (log ratio)” value: no more than -4.2 for the first, no more than -4.2 for the second.

GGAUCUUCUCGAUCUAACAAAAAAGACAAAUCUGCCACAAAGCUUGCCCGCUUCUUCGGAUGCAGAGGCGGCAGCCUUCGAUGGCGCGAUAGCGCAAACGUUCUCAACUAUGACACGCAAAACGCGUGAUCCGUUGAAUGGAGUUUAGCAUG and GGAUCUUCUCGAUCUAACAAAAAAGACAAAUCUGCCACAAAGCUUGCGAACAUCUUCGGAUGCAGAGGCGGCAGCCUUCGGUGGCGCGAUAGCGCCAACGUUCUCAACUAUGACACGCAAAACGCGUGCUCCGUUGAAUGGAGUUUAUUAUG cannot be ordered by “polymerase ribozyme fitness (log ratio)” value: no more than -4.2 for the first, no more than -4.2 for the second.

GGAUCUUCUCGAUCUAACAAAAAAGACAAAUCUGCCACAAAGCUUGCGAACAGCUUCGGAUGCAGAGGGGGCAGCCAUCGGUGGAGCGAUAGCGCCAACGUUGUCAACUAUGGCACGCAAAACGCGUGCUCCGUUCAAUGGAGUUUAUCAUG and GGAUCUUCUCGAUCUAACAAAAAAGACAAAUCUGCCACAAAGCUUGCGACCCUCUUCGGAUGCAGAGGCGGCAGCCUUCGGUGCCGCGAUAGCGCUAACGUUCUCAUCUAUGACACGCAAAACGCGUGCUCCGUUGCAUGGAGUUUAUCAUG cannot be ordered by “polymerase ribozyme fitness (log ratio)” value: no more than -4.2 for the first, no more than -4.2 for the second.

GGAUCUUCUCGAUCUAACAAAAAAGACAAAUCUGCCACAAAGCUUGCGAUCAUCUUCAGAUGCAGAGGCGGCAGCCUUCGGUUGCGCGAUAGCGCCCACGUUCUCAACUAUGACAAGCAAAACGCGUGCUCCGUUGAAUGGAGUUUAUCAUG and GGAUCUUCUCGAUCUAACAAAAAAGACAAAUCUGCCACAAAGCUUGCGAGCAUCUUCAGAUGCAGAGGCGGCAGCCUUCGGUGGCGCGAUUGCGCCGACGUUCUCAACUAUGACAUGCAAAACGCGUGCUCCGUGGAAUGUAGUUUAUCAUU cannot be ordered by “polymerase ribozyme fitness (log ratio)” value: no more than -4.2 for the first, no more than -4.2 for the second.

GGAUCUUCUCGAUCUAACAAAAAAGACAAAUCUGCCACAAAGCUUGCGAGCAUCUUCGAAUCCAGACCCGGCAGCCUUCGGUGGCGCGAUAGCGCCAAUGUUCUCAUCUAUGAAACGCAAGACGCGUGCUCCGUUGAAUGGAGUUUAUCAUG and GGAUCUUCUCGAUCUAACAAAAAAGACAAAUCUGCCACAAAGCUUGCGAGCAUCUUCGGAUGCAUAGGCGGCAGCCUUCGGUGGAGCGAUAGCGCCAACGUUCUCAACUAUGACAGGCAAAACGCGUGCUCCGUUGAAUGGAGUUUAUCAUG cannot be ordered by “polymerase ribozyme fitness (log ratio)” value: no more than -4.2 for the first, no more than -4.2 for the second.

GGAUCUUCUCGAUCUAACAAAAAAGACAAAUCUGCCACAAAGCUUGCGAGCAUCUUCGGAUGCAGAGCCGGCAGCCUUCGGUGGCGCGUUAGAGCCAACGUUCUCAACUAUGACACGCAAAACGCAUGCUCCGUUGAAUUGAGUUUAUCAUG and GGAUCUUCUCGAUCUAACAAAAAAGACAAAUCUGCCACAAAGCUUGCGAGCAUCUUCGGAUGCAGAGGCGGCAGCCUUCGGUAGCGCGAUAUCGCCAACGUUCUCACCUAUGACACGCAAAACGCGUGCUCAGUUGAAUGGAGUUUAUCAUG cannot be ordered by “polymerase ribozyme fitness (log ratio)” value: no more than -4.2 for the first, no more than -4.2 for the second.

With GGAUCUUCUCGAUCUAACAAAAAAGACAAAUCUGCCACAAAGCUUGCGAGCAUCUUCGGAUGCAGAGGCGGCAGCCUUCGGUCGCGCGAUAGCGCCAACGUUCUCAAUUAUGACACGCAAAACGCGUGCUCCGUUGAAUGGAGUUUAUCAUG the “polymerase ribozyme fitness (log ratio)” value was no more than -4.2.

From the RNAGym collection of RNA variant scans (doi:10.1073/pnas.2313332121)
